“And” between values parts separate entries of the source, which are not always exact repeats. Equal entries are not always repeated.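 Compound exposure: 48 hours, 5 concentrations, 96-well plates. The concentration for 50% growth inhibition is given as GI50. TGI is the concentration that stops growth completely.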
tested on: NCI-H322M lung; experiment: NCI anticancer screen, dose series, 48 h

First: O=C1CC[C@@]23CC(=O)O[C@@H]2CCCC3C1 (stereo not given in full)
Second: C[C@H]1C=C2C(=O)O[C@H]3CC[C@@H](C1)[C@@]23O
The TGI of the first is higher: greater than 100 µM for the first, 16.6 µM for the second.

Going from `Cc1cccc2c1CC(Cc1ccccc1C(=O)O)C2=O` (stereo not given) to `Cc1cccc2c1[nH]c(=O)c1c3ccccc3cn21`, the TGI falls from greater than 100 µM to 45.3 µM.

Going from `CO[P@@]1(=O)O[C@@H](c2ccccc2)[C@H](O)[C@]1(O)c1ccccc1` to `Cc1nc2c(=O)n(-c3ccccc3)c(=O)n(-c3ccccc3)c2o1`, the TGI rises from 98.5 µM to greater than 100 µM.

`COc1cc2nccc(Oc3ccc(NC(=O)c4cn(C(C)C)c(=O)n(-c5ccc(F)cc5)c4=O)cc3F)c2cc1OC` and `COc1cc2cnc3c4cc(OCc5ccccc5)ccc4ccc3c2cc1OC` cannot be ordered by TGI: greater than 100 µM for the first, greater than 100 µM for the second.

Compared with `C[N+](C)=c1ccc2nc3c(cc(NCCCNc4cc5oc6cc(=[N+](C)C)ccc-6nc5c5ccccc45)c4ccccc43)oc-2c1`, `c1ccc2c(c1)cc1ccc3cccc4ccc2c1c34` is 8.2-fold higher in TGI: 6.53 µM for the first, 53.4 µM for the second.

`CC(=O)[O-].N.N.N.N.[Co+3].[O-][Cl+3]([O-])([O-])[O-].[OH3+]` and `COc1ccc(S(=O)(=O)N(C(C)=O)c2ccccc2/C=C/c2cc[n+]([O-])cc2)cc1` cannot be ordered by TGI: greater than 100 µM for the first, greater than 10 µM for the second.

`CCC1([N+](=O)[O-])CN(N=O)C1` and `CCc1nc2c(c(N(C)C)c1C(=O)OC)CCc1ccccc1-2` cannot be ordered by TGI: greater than 100 µM for the first, greater than 100 µM for the second.

`CCCCNC(=O)Cn1c2ccc(Br)cc2c2nc3ccccc3nc21` and `Nc1c2ccccc2nc2c(C(=O)Nc3ccc(S(N)(=O)=O)cc3)cccc12` cannot be ordered by TGI: greater than 100 µM for the first, greater than 100 µM for the second.

First: O=C1C=CC(=O)c2c(O)c(N3CCC[C@@H]3CO)c(Cl)c(O)c21
Second: O=c1[nH]c(=O)n(C2CC(O)C(CO)O2)cc1C(F)(F)F (stereo not given)
The TGI of the first is lower: 2.28 µM for the first, greater than 100 µM for the second.

First: CCCn1cc2c3c(cccc31)C1C=C(C)CN(C)C1C2 (stereo not given)
Second: COC(=O)C1CCc2nnc(-c3ccccc3)n21 (stereo not given)
The TGI of the first is lower: 57 µM for the first, greater than 100 µM for the second.

`Clc1ccc(/C(=C/c2ccccc2)Cn2ccnc2)cc1` and `CC1SC(c2ccc(Cl)cc2Cl)N(NC(=O)C(O)c2ccccc2)C1=O` (stereo not given) cannot be ordered by TGI: greater than 100 µM for the first, greater than 100 µM for the second.

`CCCCN(CCCC)CC(C(C)=O)C(c1ccccc1)c1c(O)c2ccccc2oc1=O` (stereo not given) and `O=C1CSC(c2c[nH]c3ccccc23)N1c1ccc(Cl)cc1Cl` (stereo not given) cannot be ordered by TGI: greater than 100 µM for the first, greater than 100 µM for the second.

First: CC1=C(C(=O)OCCO[N+](=O)[O-])C(c2ccccc2[N+](=O)[O-])C(C(=O)OC(C)C)=C(C)N1 (stereo not given)
Second: C[As+](C)(c1ccc(Br)c([N+](=O)[O-])c1)c1ccc(Br)c([N+](=O)[O-])c1.O=[N+]([O-])O
The TGI of the first is lower: 64.4 µM for the first, greater than 100 µM for the second.

`CC1(C)N=C(N)N=C(N)N1c1cccc(Cl)c1` and `COc1ccc(-c2cc3cc(Cl)cc(Cl)c3oc2=O)cc1OC` cannot be ordered by TGI: greater than 100 µM for the first, greater than 100 µM for the second.

`O=C1c2cc3c(cc2CC12Cc1ccc4c(c1C2=O)CCC4)CCC3` (stereo not given) and `O=[N+]([O-])c1ccc(-c2csc(=[N+]3CCCCC3)s2)cc1` cannot be ordered by TGI: greater than 100 µM for the first, greater than 100 µM for the second.

`COc1ccc([C@]23CCC4(OCC(C)(C)CO4)[C@H]4CON(O[C@H](O[C@@H]5CCCCC5C(C)(C)c5ccccc5)C2)[C@@H]43)cc1OC` (stereo not given in full) and `COc1cc(C(=O)c2cocc2C(=O)c2ccc3c(c2)OCO3)cc(OC)c1OC` cannot be ordered by TGI: greater than 100 µM for the first, greater than 58.9 µM for the second.

`O=C[C@@H](CO)O[C@H](C=O)n1cnc2c(=O)[nH]cnc21` and `O=C(O)c1ccc(SSc2ccc(C(=O)O)cn2)nc1` cannot be ordered by TGI: 1550 µM for the first, greater than 100 µM for the second.

`CC1(C)C=C(/C=C2/N(S(=O)(=O)C(F)(F)F)C(/C=C3/N(S(=O)(=O)C(F)(F)F)C(C)(C#N)CC3(C)C)=CC2(C)C)N=C1/C=C1/CC(C)(C)C(=O)N1` (stereo not given) and `COc1ccc(-c2cc(=O)c3c(O)c(OC)c(OC)c(OC)c3o2)cc1` cannot be ordered by TGI: greater than 100 µM for the first, greater than 100 µM for the second.

Compared with `N#C/C(C(=O)NCc1ccccc1)=C(/N)N1CCCC1`, `O=C([C@H](O)[C@@H](O)c1cccc(Cl)c1)C12CC3CC(CC(C3)C1)C2` is lower in TGI: greater than 100 µM for the first, 5.73 µM for the second.

`CC1=CCCC2C(C=O)(C1)CC(C)C2(CO)CC/C(=C/CO)CO` (stereo not given) and `CCOC(=O)/C=C/CCC(C)(C)COC(C)=O` cannot be ordered by TGI: greater than 100 µM for the first, greater than 10 µM for the second.

`C[C@@H]1CC[C@@]2(NC1)O[C@H]1C[C@H]3[C@@H]4CC[C@H]5C[C@@H](O)CC[C@]5(C)[C@H]4CC[C@]3(C)[C@H]1[C@@H]2C` was tested, and the TGI was greater than 100 µM.

First: COc1cc2nccc(Oc3ccc(NC(=O)c4cn(C(C)C)c(=O)n(-c5ccc(F)cc5)c4=O)cc3F)c2cc1OC
Second: COc1ccc(S(=O)(=O)N(C(C)=O)c2ccccc2/C=C/c2cc[n+]([O-])cc2)cc1
The GI50 of the first is higher: greater than 35.1 µM for the first, 1.14 µM for the second.

Compared with `C[N+](C)=c1ccc2nc3c(cc(NCCCNc4cc5oc6cc(=[N+](C)C)ccc-6nc5c5ccccc45)c4ccccc43)oc-2c1`, `Cc1cccc2c1[nH]c(=O)c1c3ccccc3cn21` is 6.6-fold higher in GI50: 2.06 µM for the first, 13.6 µM for the second.

`CC(=O)[O-].N.N.N.N.[Co+3].[O-][Cl+3]([O-])([O-])[O-].[OH3+]` and `CC1SC(c2ccc(Cl)cc2Cl)N(NC(=O)C(O)c2ccccc2)C1=O` (stereo not given) cannot be ordered by GI50: greater than 100 µM for the first, greater than 100 µM for the second.

Compared with `CCC1=C(CC2NCCc3ccccc32)CC2c3cc(OC)c(OC)cc3CCN2C1` (stereo not given), `O=c1[nH]c(=O)n(C2CC(O)C(CO)O2)cc1C(F)(F)F` (stereo not given) is higher in GI50: 4.91 µM for the first, greater than 100 µM for the second.

For `CCC1=C(CC2NCCc3ccccc32)CC2c3cc(OC)c(OC)cc3CCN2C1` (stereo not given), the TGI was 33.7 µM and 3.46 µM.
